Test results published in the supplement of paper PMC8728848.
The list shows a part of the results.

Tests used:
Assay in all cases: glycan array binding signal (z-score within array); higher = stronger binding
Details in all cases: glycan notation: IUPAC condensed, linker removed
[1] = biological target: Gal(a1-3)Gal(b1-4)GlcNAc(b1-3)GalNAc
Summary of the method: (§1)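 Glycan array data came from 3228 arrays in the Consortium for Functional Glycomics database, and only arrays with an available protein sequence were kept. Glycan names were put into IUPAC-condensed notation, and columns mapping to the same glycan were averaged. The binding signal is a within-array Z-score, averaged across arrays of one protein sequence run at different concentrations or buffers and across linkers. A negative Z-score can be read as non-binding.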

[2] = biological target: Gal(a1-3)Gal(b1-4)GlcNAc(b1-6)GalNAc
Summary of the method: as §1

[3] = biological target: Gal(a1-3)Gal(b1-4)[Fuc(a1-3)]GlcNAc
Summary of the method: as §1

[4] = biological target: Gal(a1-3)Gal(b1-4)[Fuc(a1-3)]GlcNAc(b1-2)Man(a1-3)[Gal(a1-3)Gal(b1-4)[Fuc(a1-3)]GlcNAc(b1-2)Man(a1-6)]Man(b1-4)GlcNAc(b1-4)GlcNAc
Summary of the method: as §1

[5] = biological target: Gal(a1-3)GalNAc
Summary of the method: as §1

[6] = biological target: Gal(a1-3)[Gal(a1-4)]Gal(b1-4)GlcNAc
Summary of the method: as §1

[7] = biological target: Gal(a1-4)Gal(b1-3)GlcNAc(b1-2)Man(a1-3)[Gal(a1-4)Gal(b1-3)GlcNAc(b1-2)Man(a1-6)]Man(b1-4)GlcNAc(b1-4)GlcNAc
Summary of the method: as §1

[8] = biological target: Gal(a1-4)Gal(b1-4)Glc
Summary of the method: as §1

[9] = biological target: Gal(a1-4)Gal(b1-4)GlcNAc
Summary of the method: as §1

[10] = biological target: Gal(a1-4)Gal(b1-4)GlcNAc(b1-2)Man(a1-3)[Gal(a1-4)Gal(b1-4)GlcNAc(b1-2)Man(a1-6)]Man(b1-4)GlcNAc(b1-4)GlcNAc
Summary of the method: as §1

[11] = biological target: Gal(a1-4)Gal(b1-4)GlcNAc(b1-3)Gal(b1-4)Glc
Summary of the method: as §1

[12] = biological target: Gal(a1-4)GlcNAc
Summary of the method: as §1

[13] = biological target: Gal(a1-6)Glc
Summary of the method: as §1

[14] = biological target: Gal(b1-2)Gal
Summary of the method: as §1

[15] = biological target: Gal(b1-3)Gal
Summary of the method: as §1

[16] = biological target: Gal(b1-3)Gal(b1-4)GlcNAc
Summary of the method: as §1

[17] = biological target: Gal(b1-3)Gal(b1-4)GlcNAc(b1-2)Man(a1-3)[Gal(b1-3)Gal(b1-4)GlcNAc(b1-2)Man(a1-6)]Man(b1-4)GlcNAc(b1-4)GlcNAc
Summary of the method: as §1

[18] = biological target: Gal(b1-3)GalNAc
Summary of the method: as §1

[19] = biological target: Gal(b1-3)GalNAc(a1-3)[Fuc(a1-2)]Gal(b1-4)Glc
Summary of the method: as §1

[20] = biological target: Gal(b1-3)GalNAc(a1-3)[Fuc(a1-2)]Gal(b1-4)GlcNAc
Summary of the method: as §1

[21] = biological target: Gal(b1-3)GalNAc(b1-3)Gal(a1-4)Gal(b1-4)Glc
Summary of the method: as §1

[22] = biological target: Gal(b1-3)GalNAc(b1-4)Gal(b1-4)Glc
Summary of the method: as §1

[23] = biological target: Gal(b1-3)GalNAc(b1-4)[Neu5Ac(a2-3)]Gal(b1-4)Glc
Summary of the method: as §1

[24] = biological target: Gal(b1-3)GlcNAc
Summary of the method: as §1

[25] = biological target: Gal(b1-3)GlcNAc(a1-3)Gal(b1-4)GlcNAc
Summary of the method: as §1

[26] = biological target: Gal(b1-3)GlcNAc(a1-6)Gal(b1-4)GlcNAc
Summary of the method: as §1

[27] = biological target: Gal(b1-3)GlcNAc(b1-2)Man(a1-3)[Gal(b1-3)GlcNAc(b1-2)Man(a1-6)]Man(b1-4)GlcNAc(b1-4)GlcNAc
Summary of the method: as §1

[28] = biological target: Gal(b1-3)GlcNAc(b1-2)Man(a1-3)[Gal(b1-3)GlcNAc(b1-2)Man(a1-6)]Man(b1-4)GlcNAc(b1-4)[Fuc(a1-6)]GlcNAc
Summary of the method: as §1

[29] = biological target: Gal(b1-3)GlcNAc(b1-2)Man(a1-3)[GlcNAc(b1-4)][Gal(b1-3)GlcNAc(b1-2)Man(a1-6)]Man(b1-4)GlcNAc(b1-4)GlcNAc
Summary of the method: as §1

[30] = biological target: Gal(b1-3)GlcNAc(b1-2)[Gal(b1-3)GlcNAc(b1-6)]Man(a1-6)[Gal(b1-3)GlcNAc(b1-2)Man(a1-3)]Man(b1-4)GlcNAc(b1-4)GlcNAc
Summary of the method: as §1

[31] = biological target: Gal(b1-3)GlcNAc(b1-3)Gal(b1-3)GlcNAc
Summary of the method: as §1

[32] = biological target: Gal(b1-3)GlcNAc(b1-3)Gal(b1-4)Glc
Summary of the method: as §1

[33] = biological target: Gal(b1-3)GlcNAc(b1-3)Gal(b1-4)GlcNAc
Summary of the method: as §1

[34] = biological target: Gal(b1-3)GlcNAc(b1-3)Gal(b1-4)GlcNAc(b1-6)[Gal(b1-3)GlcNAc(b1-3)]Gal(b1-4)Glc
Summary of the method: as §1

[35] = biological target: Gal(b1-3)GlcNAc(b1-3)Gal(b1-4)[Fuc(a1-3)]GlcNAc(b1-6)[Gal(b1-3)GlcNAc(b1-3)]Gal(b1-4)Glc
Summary of the method: as §1

[36] = biological target: Gal(b1-3)GlcNAc(b1-3)GalNAc
Summary of the method: as §1

[37] = biological target: Gal(b1-3)GlcNAc(b1-6)Gal(b1-4)GlcNAc
Summary of the method: as §1

[38] = biological target: Gal(b1-3)GlcNAc(b1-6)GalNAc
Summary of the method: as §1

B1: RVL (Remusatia vivipara), B5LYJ9 (protein)
chain: MAKLLLFLLPAILGLLVPRSAVALGTNYLLSGQTLDTEGHLKNGDFDLVMQDDCNLVLYNGNWQSNTANNGRDCKLTLTDYGELVIKNGDGSTVWKSGAQSVKGNYAAVVHPDGRLVVLGPSVFKIDPWVRGLNSLRFRNIPFTNNLLFSGQVLYGDGRLTAKNHQLVMQGDCNLVLYGGKYGWQSNTHGNGEHCFLRLNHKGELIIKDDDFKTIWSSRSSSKQGEYVLILQDDGFGVIYGPAIFETSSKRSIAAS
Which “glycan array binding signal (z-score)” value [1] does the source give for B1 here?
Its value is -0.178.

And the “glycan array binding signal (z-score)” value [2]?
Its value is -0.158.

What about the “glycan array binding signal (z-score)” value [3] of the same binder?
Its value is -0.093.

And the “glycan array binding signal (z-score)” value [4]?
Its value is 0.663.

And the “glycan array binding signal (z-score)” value [5]?
The value was -0.058.

What about the “glycan array binding signal (z-score)” value [6] of the same binder?
Its value is -0.341.

What about the “glycan array binding signal (z-score)” value [7] of the same binder?
Its value is 1.75.

What about the “glycan array binding signal (z-score)” value [8] of the same binder?
The value was -0.214.

And the “glycan array binding signal (z-score)” value [9]?
The value was -0.159.

What about the “glycan array binding signal (z-score)” value [10] of the same binder?
The value was 1.93.

What about the “glycan array binding signal (z-score)” value [11] of the same binder?
Its value is -0.111.

And the “glycan array binding signal (z-score)” value [12]?
Its value is -0.322.

And the “glycan array binding signal (z-score)” value [13]?
Its value is -0.039.

What about the “glycan array binding signal (z-score)” value [14] of the same binder?
Its value is -0.166.

What about the “glycan array binding signal (z-score)” value [15] of the same binder?
Its value is -0.264.

And the “glycan array binding signal (z-score)” value [16]?
The value was -0.124.

What about the “glycan array binding signal (z-score)” value [17] of the same binder?
Its value is 0.377.

And the “glycan array binding signal (z-score)” value [18]?
Its value is -0.206.

What about the “glycan array binding signal (z-score)” value [19] of the same binder?
Its value is -0.181.

What about the “glycan array binding signal (z-score)” value [20] of the same binder?
Its value is -0.307.

And the “glycan array binding signal (z-score)” value [21]?
The value was -0.01.

What about the “glycan array binding signal (z-score)” value [22] of the same binder?
The value was -0.076.

What about the “glycan array binding signal (z-score)” value [23] of the same binder?
The value was -0.201.

What about the “glycan array binding signal (z-score)” value [24] of the same binder?
The value was -0.311.

And the “glycan array binding signal (z-score)” value [25]?
Its value is -0.198.

What about the “glycan array binding signal (z-score)” value [26] of the same binder?
Its value is -0.316.

What about the “glycan array binding signal (z-score)” value [27] of the same binder?
The value was 1.33.

And the “glycan array binding signal (z-score)” value [28]?
Its value is -0.098.

What about the “glycan array binding signal (z-score)” value [29] of the same binder?
The value was 0.453.

And the “glycan array binding signal (z-score)” value [30]?
The value was 0.123.

What about the “glycan array binding signal (z-score)” value [31] of the same binder?
The value was -0.222.

And the “glycan array binding signal (z-score)” value [32]?
The value was -0.227.

What about the “glycan array binding signal (z-score)” value [33] of the same binder?
Its value is -0.252.

What about the “glycan array binding signal (z-score)” value [34] of the same binder?
The value was -0.574.

And the “glycan array binding signal (z-score)” value [35]?
The value was -0.053.

What about the “glycan array binding signal (z-score)” value [36] of the same binder?
Its value is -0.055.

What about the “glycan array binding signal (z-score)” value [37] of the same binder?
Its value is 0.004.

What about the “glycan array binding signal (z-score)” value [38] of the same binder?
Its value is -0.041.
